Test results from the supplement of paper PMC10670038.
Structures can show the parent of a compound that is named as a salt. ± gives the standard deviation of the averaged measurements. Over roughly 2,000 compounds, “relative cell viability vs DMSO, compound + 0.2 uM CuET” has its median near 1; the lowest 2% begin near 0.25. The list shows a part of the results.

These molecules were tested on TE10 (assay: relative cell viability vs DMSO, compound + 0.2 uM CuET (fraction); TE10 is an esophageal squamous carcinoma line; higher = less cytotoxic). Details: 2 µM; co-treatment: CuET (bis(diethyldithiocarbamate)copper) 0.2 uM; 48 h.
Procedure: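 TE10 ESCC cells (1,000/well, 384-well plates) were treated with Selleck bioactive library compounds at 2 uM combined with 0.2 uM CuET (copper diethyldithiocarbamate) for 48 h. Viability was read by CellTiter-Glo and expressed relative to DMSO wells. Two technical replicates (A, B).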

SMILES | relative cell viability
O=C1c2ccccc2C(=O)c2c1ccc(O)c2O [Alizarin] | 1.1 ± 0.029
CC(/C=C1\SC(=S)N(CC(=O)O)C1=O)=C\c1ccccc1 [Epalrestat] | 1.06 ± 0.12
c1ccc(CNc2nc(NCc3ccccc3)c3ccccc3n2)cc1 | 0.623 ± 0.11
COC(=O)CCSCc1ccc(-c2onc(C)c2NC(=O)OC(C)c2ccccc2Cl)cc1 (stereo unspecified) | 0.919 ± 0.024
Cc1nc(=O)c2cc(CN(C)c3ccc(C(=O)N[C@@H](CCC(=O)O)C(=O)O)s3)ccc2[nH]1 [Raltitrexed] | 0.948 ± 0.02
CS(=O)(=O)N1CCc2c(-c3cnc(N)nc3)nc(N3CCOCC3)nc21 | 0.686 ± 0.0086
O=c1oc2ccccc2c(O)c1Cc1c(O)c2ccccc2oc1=O [Dicoumarol] | 1.056 ± 0.0037
Cc1ccccc1CN1C2=NCCN2C(=O)C2=C1CCN(Cc1ccccc1)C2 [TIC10 Analogue] | 1.11 ± 0.052
Nc1cc(C(Cl)=C(Cl)Cl)c(S(N)(=O)=O)cc1S(N)(=O)=O [Clorsulon] | 0.984 ± 0.21
CC[C@H](C)C(=O)O[C@H]1CCC=C2C=C[C@H](C)[C@H](CC[C@@H]3C[C@@H](O)CC(=O)O3)[C@H]21 [Mevastatin] | 1.11 ± 0.13
COc1ccc([C@@H]2CC(=O)c3c(O)cc(O[C@@H]4O[C@H](CO)[C@@H](O)[C@H](O)[C@H]4O[C@@H]4O[C@@H](C)[C@H](O)[C@@H](O)[C@H]4O)cc3O2)cc1O [Neohesperidin] | 1.2 ± 0.14
CC(=O)OCC(CCn1cnc2cnc(N)nc21)COC(C)=O [Famciclovir] | 1.27 ± 0.052
CC(C)CC(CC(=O)NO)C(=O)N[C@@H](Cc1ccc2ccccc2c1)C(=O)N[C@@H](C)C(=O)NCCN (stereo partly specified) | 1.19 ± 0.051
O=C(/C=C/c1ccc(O)c(O)c1)OCCc1ccccc1 [Caffeic Acid Phenethyl Ester] | 0.875 ± 0.056
C=CC(=O)Nc1cccc(Oc2nc(Nc3ccc(N4CCN(C)CC4)cc3OC)ncc2Cl)c1 | 0.929 ± 0.086
C[C@H](CCC(=O)O)[C@H]1CC[C@H]2[C@@H]3[C@H](O)C[C@@H]4C[C@H](O)CC[C@]4(C)[C@H]3CC[C@]12C [Chenodeoxycholic Acid] | 0.999 ± 0.047
CCC(=O)O[C@]1(C(=O)CCl)[C@@H](C)C[C@H]2[C@@H]3CCC4=CC(=O)C=C[C@]4(C)[C@@]3(F)[C@@H](O)C[C@@]21C [Clobetasol propionate] | 1.05 ± 0.028
O=C1C[C@@H](c2ccc(O)cc2)Oc2cc(O)cc(O)c21 [Naringenin] | 1.16 ± 0.16
O=S(=O)(O)c1cc(O)ccc1O [Ethamsylate] | 1.08 ± 0.096
COc1ccc(F)c(F)c1C(=O)c1cnc(NC2CCN(S(C)(=O)=O)CC2)nc1N | 0.558 ± 0.14
CCOC(=O)[C@H](CCc1ccccc1)N[C@H]1CS[C@H](c2cccs2)CN(CC(=O)O)C1=O [Temocapril HCl] | 1.08 ± 0.088
O=c1c(O)c(-c2ccc(O)cc2O)oc2cc(O)cc(O)c12 [Morin Hydrate] | 0.979 ± 0.075
COc1ccc(C2CNC(=O)C2)cc1OC1CCCC1 (stereo unspecified) [Rolipram] | 1.17 ± 0.036
COc1ccc(C2CNC(=O)C2)cc1OC1CCCC1 (stereo not drawn) [S- (+)-Rolipram] | 1.04 ± 0.031
CC(=O)Nc1nc(C)c(-c2ccc(Cl)c(S(=O)(=O)NCCO)c2)s1 | 0.884 ± 0.06
C[C@H]1C[C@@H]2[C@H]([C@@H](O)C[C@@]3(C)[C@H]2CC[C@]3(O)C(=O)CO)[C@@]2(C)C=CC(=O)C=C12 [Methylprednisolone] | 1.19 ± 0.014

SMILES | relative cell viability
COc1ccccc1OCC(O)CN1CCN(CC(=O)Nc2c(C)cccc2C)CC1 (stereo unspecified) [Ranolazine 2HCl] | 1.23 ± 0.072
COc1ccccc1OCC(O)CN1CCN(CC(=O)Nc2c(C)cccc2C)CC1 (stereo unspecified) [Ranolazine] | 1.09 ± 0.11
CN(C)C(=S)NN=C(c1ccccn1)c1ccccn1 | 0.943 ± 0.047
COc1cc([C@@H]2c3cc4c(cc3[C@@H](O[C@@H]3O[C@@H]5CO[C@@H](C)O[C@H]5[C@H](O)[C@H]3O)[C@H]3COC(=O)[C@H]23)OCO4)cc(OC)c1O [Etoposide] | 0.833 ± 0.2
CCCNCC(O)COc1ccccc1C(=O)CCc1ccccc1 (stereo unspecified) [Propafenone HCl] | 1.05 ± 0.13
O=C1c2ccc(Nc3ccc(F)cc3F)cc2CCc2ccc(OC[C@H](O)CO)cc21 [Skepinone-L] | 1.17 ± 0.018
CC(NC(=O)C(O)c1cc(F)cc(F)c1)C(=O)NC1C(=O)N(C)c2ccccc2-c2ccccc21 (stereo unspecified) | 1.07 ± 0.058
CN(C)c1nc(N(C)C)nc(N(C)C)n1 [Altretamine] | 1.251 ± 0.0082
Nc1nc2n[nH]nc2c(=O)[nH]1 [Azaguanine-8] | 1.22 ± 0.091
O=C(O)c1cc(-c2ccccc2)nc2ccccc12 [Cinchophen] | 1.02 ± 0.034
CC(=O)O[C@]1(C(C)=O)CC[C@H]2[C@@H]3C[C@H](C)C4=CC(=O)CC[C@]4(C)[C@H]3CC[C@@]21C [Medroxyprogesterone acetate] | 1.01 ± 0.067
COc1cc2c(Oc3ccc4[nH]c(C)cc4c3F)ncnc2cc1OCCCN1CCCC1 [Cediranib (AZD2171)] | 0.948 ± 0.061
O=c1cc[nH]c(=S)[nH]1 [2-Thiouracil] | 1.1 ± 0.12
Cc1cccc(C#Cc2ccccc2)n1 | 0.729 ± 0.23
CC(C)(C)c1ccc(-c2nc3ccccc3[nH]2)cc1 | 0.3 ± 0.029
O=C(/C=C/c1ccc(CN(CCO)CCc2c[nH]c3ccccc23)cc1)NO [LAQ824 (Dacinostat)] | 0.145 ± 0.0072
Cc1nc(-c2cn3c(n2)-c2ccc(-c4cnn(C(C)(C)C(N)=O)c4)cc2OCC3)n(C(C)C)n1 | 0.675 ± 0.072
Cc1c(F)cc(C(=O)NC2CC2)cc1-c1ccc(C(=O)NCC(C)(C)C)cn1 | 1.07 ± 0.098
COc1ccc(S(=O)(=O)N(C(C)=O)c2ccccc2/C=C/c2cc[n+]([O-])cc2)cc1 | 1.1 ± 0.082
CC[C@H]1OC(=O)[C@H](C)[C@@H](O[C@H]2C[C@@](C)(OC)[C@@H](O)[C@H](C)O2)[C@H](C)[C@@H](O[C@@H]2O[C@H](C)C[C@H](N(C)C)[C@H]2O)[C@](C)(O)C[C@@H](C)[C@@H]2N[C@@H](COCCOC)O[C@H]([C@H]2C)[C@]1(C)O [Dirithromycin] | 1.0283 ± 0.00083
O=C1CC2(CCCC2)CC(=O)N1CCCCN1CCN(c2ncccn2)CC1 [Buspirone HCl] | 1.14 ± 0.087
CC(C)c1cc(-c2ccc(F)c3ccccc23)nc(N)n1 | 1.46 ± 0.44
O=C(NOC[C@H](O)CO)c1ccc(F)c(F)c1Nc1ccc(I)cc1F | 1.1 ± 0.053
Cc1cc(C)c(/C=C2\C(=O)Nc3ccccc32)[nH]1 [Semaxanib (SU5416)] | 1.17 ± 0.37
CCN=C1N[C@@H]2[C@@H](O)[C@H](O)[C@@H](CO)O[C@@H]2S1 [Thiamet G] | 1.16 ± 0.065
CC(=O)Nc1ncc([N+](=O)[O-])s1 [Nithiamide] | 1.49 ± 0.068

SMILES | relative cell viability
CNc1cccc(CCOc2ccc3c(c2)CN(CC(F)(F)F)C(=O)[C@H](CC(=O)O)C3)n1 | 1.04 ± 0.12
CCCCCCCCCCCCCCCC(=O)O[C@@H]1[C@@H](O)[C@@H](O)[C@@H]([C@H](NC(=O)[C@@H]2C[C@@H](CCC)CN2C)[C@H](C)Cl)O[C@@H]1SC [Clindamycin palmitate HCl] | 1.33 ± 0.12
CN1CCN(CCOc2cc(OC3CCOCC3)c3c(Nc4c(Cl)ccc5c4OCO5)ncnc3c2)CC1 [Saracatinib (AZD0530)] | 0.565 ± 0.34
CCOCC(O)COc1ccc(NC(=O)CC[S+](C)C)cc1 (stereo unspecified) [Suplatast Tosylate] | 0.922 ± 0.026
CC1Cc2ccccc2N1NC(=O)c1ccc(Cl)c(S(N)(=O)=O)c1 (stereo unspecified) [Indapamide] | 0.9492 ± 0.0029
O=C(/C=C\n1cnc(-c2cc(C(F)(F)F)cc(C(F)(F)F)c2)n1)NNc1ccccn1 [Verdinexor (KPT-335)] | 0.294 ± 0.0026
C=CC(=O)Nc1ccc2ncnc(Nc3cccc(Br)c3)c2c1 | 0.79 ± 0.068
CCC(=O)c1c(O)cc(O)cc1O [Flopropione] | 1.13 ± 0.052
COc1ccccc1S(=O)(=O)Nc1ccc2c(c1)CN(C)C(=O)N2 | 0.852 ± 0.051
FC(F)c1nc2ccccc2n1-c1nc(N2CCOCC2)nc(N2CCOCC2)n1 | 0.6535 ± 0.0037
Cc1nnc(NS(=O)(=O)c2ccc(N)cc2)s1 [Sulfamethizole] | 1.07 ± 0.011
CC(C)Oc1ccc(C(=O)N[C@H](CNC(=O)CN(C)C)Cc2ccc(-c3cn4cccc([C@H](C)O)c4n3)cc2)cc1Cl | 0.963 ± 0.046
C[C@@H]1C[C@H]2[C@@H]3CCC4=CC(=O)C=C[C@]4(C)[C@@]3(F)[C@@H](O)C[C@]2(C)[C@@]1(O)C(=O)CO [Dexamethasone (DHAP)] | 1.17 ± 0.09
OC1(c2ccc(Cl)c(C(F)(F)F)c2)CCN(CCCC(c2ccc(F)cc2)c2ccc(F)cc2)CC1 [Penfluridol] | 0.252 ± 0.037
CC1(C)O[C@@H]2C[C@H]3[C@@H]4CCC5=CC(=O)C=C[C@]5(C)[C@@]4(F)[C@@H](O)C[C@]3(C)[C@]2(C(=O)CO)O1 [Triamcinolone Acetonide] | 1.11 ± 0.15
Cc1cnc(NC(=O)C2=C(O)c3ccccc3S(=O)(=O)N2C)s1 [Meloxicam] | 1.06 ± 0.14
O=C(O)CCCc1ccccc1 [Sodium Phenylbutyrate] | 1.104 ± 0.0058
CCOc1nc2cccc(C(=O)O)c2n1Cc1ccc(-c2ccccc2-c2noc(=O)[nH]2)cc1 [Azilsartan] | 1.17 ± 0.24
COCCOC(=O)C1=C(C)NC(C)=C(C(=O)OC/C=C/c2ccccc2)C1c1cccc([N+](=O)[O-])c1 (stereo unspecified) [Cilnidipine] | 1.08 ± 0.031
Cc1cc([C@@H](C)Nc2ccccc2C(=O)O)c2nc(N3CCOCC3)cc(=O)n2c1 | 0.873 ± 0.074
Cc1cc(C)cc(C(=O)NOCCCCCC(=O)NO)c1 | 0.23 ± 0.02
O=c1c(-c2ccc(O)cc2)coc2c([C@@H]3O[C@H](CO)[C@@H](O)[C@H](O)[C@H]3O)c(O)ccc12 [Puerarin] | 1.158 ± 0.004
CNC(=O)c1cc(COc2nnc(Nc3ccc(Cl)cc3)c3ccoc23)ccn1 [Telatinib] | 0.811 ± 0.0084
CCCc1nc(C)c2c(=O)nc(-c3cc(S(=O)(=O)N4CCN(CC)CC4)ccc3OCC)[nH]n12 [Vardenafil HCl Trihydrate] | 1.1 ± 0.062
